About 2,200 (0.71%) of roughly 310,000 compounds showed an effect of 50% or more. The effect is printed as a negative number. The list shows a part of the results.
The molecules below were run against human ether-à-go-go-related gene (hERG) potassium channel (human, UniProt Q12809) (assay: primary screen, population patch clamp on CHO cells stably expressing hERG).
Sequence of human ether-à-go-go-related gene (hERG) potassium channel (Q12809 whole entry, looked up): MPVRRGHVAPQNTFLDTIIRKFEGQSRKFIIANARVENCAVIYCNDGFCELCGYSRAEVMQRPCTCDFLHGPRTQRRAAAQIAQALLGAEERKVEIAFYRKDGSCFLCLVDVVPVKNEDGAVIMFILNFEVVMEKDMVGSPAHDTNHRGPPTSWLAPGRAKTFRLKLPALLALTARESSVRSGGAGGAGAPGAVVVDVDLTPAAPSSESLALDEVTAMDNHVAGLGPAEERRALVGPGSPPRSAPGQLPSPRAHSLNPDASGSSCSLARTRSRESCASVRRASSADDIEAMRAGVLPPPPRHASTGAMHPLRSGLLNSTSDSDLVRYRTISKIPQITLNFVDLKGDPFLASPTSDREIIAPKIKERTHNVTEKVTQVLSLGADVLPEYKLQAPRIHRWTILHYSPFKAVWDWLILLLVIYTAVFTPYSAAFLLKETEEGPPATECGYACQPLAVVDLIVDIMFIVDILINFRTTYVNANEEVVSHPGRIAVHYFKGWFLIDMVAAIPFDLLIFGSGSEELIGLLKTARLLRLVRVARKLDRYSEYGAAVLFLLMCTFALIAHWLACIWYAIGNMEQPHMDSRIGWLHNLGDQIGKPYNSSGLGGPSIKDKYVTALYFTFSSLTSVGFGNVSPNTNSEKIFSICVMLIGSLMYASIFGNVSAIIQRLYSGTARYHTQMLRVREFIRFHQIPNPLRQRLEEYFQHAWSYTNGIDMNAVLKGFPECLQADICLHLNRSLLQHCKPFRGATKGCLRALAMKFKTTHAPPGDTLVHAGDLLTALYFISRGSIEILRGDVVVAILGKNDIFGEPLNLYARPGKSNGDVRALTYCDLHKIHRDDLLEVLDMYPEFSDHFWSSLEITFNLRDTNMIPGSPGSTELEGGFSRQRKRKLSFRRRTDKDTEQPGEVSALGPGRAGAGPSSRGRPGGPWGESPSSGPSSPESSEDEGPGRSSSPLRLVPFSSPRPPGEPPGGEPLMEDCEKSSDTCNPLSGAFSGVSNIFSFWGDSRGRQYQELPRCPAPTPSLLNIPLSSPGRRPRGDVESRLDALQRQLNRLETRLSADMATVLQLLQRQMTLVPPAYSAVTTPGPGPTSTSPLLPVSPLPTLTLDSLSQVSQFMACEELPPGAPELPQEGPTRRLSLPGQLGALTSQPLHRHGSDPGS

Structure (SMILES) | hERG current change (%, negative = inhibition) at 1uM
N#CC1=C(N)OC2=C(C(=O)CCC2)C12CCN(C(=O)OCc1ccccc1)CC2 | -11.9%
c1ccc(OCc2nnc3n2CCCCC3)cc1 | 16.5%
Cc1[nH]n(-c2ccccc2)c(=O)c1N=Nc1ccc2c(c1)OCO2 | 11.1%
CCOc1ccnc(OCC)c1Br | 32.8%
O=C(COC(=O)c1cc[n+]([O-])cc1)Nc1ccc(F)c([N+](=O)[O-])c1 | 6.84%
CCOC(=O)C1CCN(c2nc(-c3ccc(C)cc3)nc3ccccc23)CC1 | 17.5%
Cc1cc(/C=C2\C(=O)NC(=O)N(Cc3ccco3)C2=O)c(C)n1-c1ccc(O)cc1 | 10.5%
Cc1cc(C(=O)NCc2csc(-c3ccccc3)n2)no1 | 9.64%
O=C(CN1C(=O)S/C(=C\c2ccccc2)C1=O)Nc1cc([N+](=O)[O-])ccc1O | 11.8%
CN(CC(=O)Nc1ccccc1Cl)C(=O)c1ccccc1Sc1ccccc1C#N | 16.1%
CCN(CC)c1ccc2cc(C(=O)NNC(=O)c3ccc(S(=O)(=O)N4CCCCC4)cc3)c(=O)oc2c1 | 21.2%
COC(=O)c1ccc(NC(=O)CCN2CCN(c3ccccc3)CC2)cc1 | 7.64%
CC(=O)N1CCn2c3c(c4cc(C)ccc42)CCCC31 (centres unmarked) | 8.2%
Cl.c1cc(CNC23CC4CC(CC(C4)C2)C3)ccn1 | 1.35%
Cc1c(CC(=O)NCC(=O)NCC(=O)O)c(=O)oc2cc3c(cc12)CCC(C)(C)O3 | 16.4%
CCn1c(CNC(=O)c2ccc(OC)c(OC)c2)nnc1SCC(=O)Nc1ccccc1 | 4.89%
CN(CC(CC(=O)Nc1nncs1)c1ccccc1)S(=O)(=O)c1ccccc1 (centres unmarked) | 9.47%
COC(=O)c1ccc(CSc2ncnc3sc(C)c(C)c23)o1 | 15.1%
Clc1cccc(Cl)c1NC1=NCCC1 | 10.7%
COC(=O)Cc1c(C)nc2nc(-c3ccccc3)[nH]n2c1=O | 11.9%
CC(=O)Nc1ccc(C(=O)OCC(=O)NC(=O)NC(C)(C)C)cc1 | 12%
COc1cc(C2c3[nH]c4ccccc4c3C[C@H]3C(=O)N(CCO)CC(=O)N23)cc(OC)c1OC (some centres unmarked) | 4%
CCN1CCN(CC(=O)Nc2ccc(OC(F)(F)F)cc2)CC1.Cl | -29.4%

Structure (SMILES) | hERG current change (%, negative = inhibition) at 1uM
CC(C)c1ccc(/C=N/Nc2ccc(C(=O)O)cc2)cc1 | 2.29%
C=CCOc1cccc(C2C(C(=O)c3ccco3)=C(O)C(=O)N2Cc2cccnc2)c1 (centres unmarked) | 11.8%
CN1C(=O)C(O)(CC(=O)c2cccs2)c2ccccc21 (centres unmarked) | 11.4%
COc1ccccc1C(=O)O/N=C(\N)c1ccccn1 | 15%
COc1ccc(F)cc1S(=O)(=O)NCC(c1ccc2c(c1)OCO2)N1CCN(C)CC1 (centres unmarked) | -12.6%
Cc1cc(N2CCOCC2)ccc1/C=C1/SC(=O)NC1=O | 5.26%
CS(=O)(=O)c1ccc2nc(NC(=O)c3cc(-c4ccccc4)nn3-c3ccccc3)sc2c1 | 14.2%
O=C(NCc1ccccc1Cl)C1CCN(S(=O)(=O)c2ccc(-n3cnnn3)cc2)CC1 | -3.01%
CCOC(=O)c1cc(C(=O)c2cc(Cl)ccc2O)coc1=N | 9.5%
Cc1ccccc1-n1c(=O)cc(N2CCCCCC2)[nH]c1=O | 4.68%
O=C(O)CCC(=O)N1CCN(c2ccccn2)CC1 | 9.22%
COc1cccc(-c2nc(NCCN3CCOCC3)c3ccccc3n2)c1O | -0.437%
Cc1cc(C)c2nc(N3CCCC3)c(C#N)cc2c1 | -1.75%
Cc1cccc(NC(=O)CS(=O)(=O)c2cn(C)c3ccccc23)c1 | 2.95%
Cc1cc2occ(CC(=O)Nc3nccs3)c2cc1C(C)C | 6.91%
Cc1ccc(S(=O)(=O)Nc2cccc(C(=O)NC3CCN(Cc4ccccc4)CC3)c2)cc1F | -27.4%
Cc1oc(-c2cccs2)nc1CSCC(=O)N1CCC2(CC1)OCCO2 | 7.4%
COc1ccc2[nH]c3c(c2c1)CN(C)CC3.Cl | 7.2%
O=C(C1CCN(S(=O)(=O)c2ccc(-n3cnnn3)cc2)CC1)N1CCCCC1 | 3.7%
COc1cc(OC)c(N(C)C(=O)c2cc3c(s2)-c2ccccc2S(=O)(=O)C3)cc1Cl | 12.5%
CCCn1c(NCc2ccco2)nc2c1c(=O)n(C)c(=O)n2C | 2.05%
CCC(C)NS(=O)(=O)c1ccc(OCC(=O)NCc2cccnc2)cc1 (centres unmarked) | 12.3%
Cc1onc(-c2ccccc2Cl)c1C(=O)NC(=S)NCC(=O)c1ccccc1 | 12.5%

Structure (SMILES) | hERG current change (%, negative = inhibition) at 1uM
COC(=O)NNC(=O)COc1cc(C)c(Br)cc1C(C)C | 16.3%
COc1ccc(NC(=O)CN2CCc3ccccc3C2)cc1OC | 10.8%
Cc1ccc(Cc2c(C)nc3nc(SCC(=O)NCCCN4CCOCC4)nn3c2C)cc1 | 6.68%
COc1ccccc1C(=O)Nc1ccccc1N1CCOCC1 | 1.38%
CCNc1nc(Cl)nc(NCc2ccccc2)n1 | 8.19%
Cc1cc(N2CCCCC2)ccc1C=C1C(=O)N(C)C(=S)N(C)C1=O | 16.1%
Cc1cnc(C(=O)OC(C)C(=O)NC2CCCc3ccccc32)cn1 (centres unmarked) | 10.6%
COc1ccc(-c2csc(NC(=O)c3ccc(OCC(=O)N4CCOCC4)c(OC)c3)n2)cc1 | -19.3%
CCC(C)(C)NC(=O)C(c1sccc1C)N(Cc1ccco1)C(=O)c1csnn1 (centres unmarked) | 5.8%
CN(C)c1ccc(/C=C/C(=O)c2cccnc2)cc1 | 6.82%
Cc1ccc2nc(-c3ccc(NC(=O)COC(=O)c4ccco4)cc3)sc2c1 | 4.4%
O=C(N/N=C/c1c[nH]c2ccccc12)c1cc(Cl)ccc1O | 11.3%
Cc1nn(C(C)C)c(C)c1[C@@H]1C[C@H]2CN(Cc3cccc(Cl)c3)C(=O)[C@]23CCCN13 | -1.55%
COC(=O)C[C@H]1c2cc(F)ccc2S(=O)(=O)N1C(C)C | 16.8%
CCOc1ccc(NC(=S)NS(=O)(=O)c2cc(Br)ccc2OCC)cc1 | 16.6%
CN1CCC2(CC1)NC(=O)C1=C(CN(C)CC1)N2 | 15.5%
Cc1cc(SCC(=O)c2ccccc2)nc(SCC(=O)c2ccccc2)n1 | 10.5%
COCCNc1nc(N)c([N+](=O)[O-])c(Nc2ccc(F)cc2)n1 | 10.8%
FC(F)(F)COc1ccc(-n2ccnc2)nn1 | 7.05%
Cc1sc2ncnc(N)c2c1C | 5.81%
COc1cccc(CN(CC(=O)NC2CCCC2)C(=O)c2csnn2)c1 | 12.6%
CC(=O)N/C(=C\c1ccccc1)C(=O)OCC(=O)NC1CCS(=O)(=O)C1 (centres unmarked) | -4.54%
Cc1ccc2c(n1)sc1c(N)ncnc12 | 15%

Structure (SMILES) | hERG current change (%, negative = inhibition) at 1uM
CCOC(=O)N1CCN(CC(O)COc2ccc(CC)cc2)CC1.Cl (centres unmarked) | 0.0015%
Cc1cccc(-c2nnc(SCC(=O)Nc3nc4c(s3)CCCC4)n2C)c1 | -2.41%
Cc1ccc(/C(N)=N/OC(=O)N2c3ccccc3Sc3ccccc32)cc1 | 9.41%
COCCN1CCN(Cc2nc(Cc3ccc(OC)c(OC)c3)no2)CC1 | 7.26%
Cc1ccc(S(=O)(=O)N2CCC(=O)N(C(COCc3ccc(Cl)cc3)C(C)C)CC2)cc1 (centres unmarked) | -20.5%
COc1ccc(CCNC(=O)COC(=O)c2ccccc2NCCO)cc1OC | 8.36%
O=C(CS(=O)(=O)c1ccc(F)cc1)NCCS(=O)(=O)c1ccccc1 | 15.7%
O=S(=O)(Nc1ccn(-c2ccccc2)n1)c1ccc(Br)cc1 | 16%
COC(=O)c1ccc(N2CCN(C)CC2)c(NC(=O)c2sc3ccccc3c2Cl)c1 | 15.5%
COC(=O)C1=C(c2ccc3ccccc3c2)C[C@@H]2CC[C@H]1N2C(=O)NCCNC(C)=O | 13.7%
C=CCNC(=O)CCCc1ccccc1 | 1.79%
Cc1cnc(C(=O)Nc2nnc(SCc3c(Cl)cccc3Cl)s2)cn1 | 4.29%
C=C(C)CSc1cc(C)nc2c(-c3ccccc3)c(C)nn12 | 8.13%
COc1cccc(NC(=S)N2CCn3c(nc4ccccc43)C2)c1 | -2.41%
C=CCN1C(=O)/C(=C2/Sc3ccccc3N2CCCS(=O)(=O)O)SC1=S.c1ccncc1 | 5.03%
CCS(=O)(=O)N1CCN=C1SCc1ccc(F)cc1 | 12.3%
COc1ccc(CC2(CO)CCN(S(=O)(=O)c3c(C)nn(C)c3Cl)CC2)cc1 | 7.19%
Cc1c(/C=N/NC(=O)C2(O)c3ccccc3-c3ccccc32)cnn1C | 14.8%
Cc1ccc(-n2nnnc2SCC(=O)N2CCc3ccccc3C2)c(C)c1 | -7.25%
Cc1ccc(N(C(=O)CS(=O)CC(=O)Nc2ccc(F)cc2)C(C)C(=O)NC(C)(C)C)cc1 (centres unmarked) | 13.9%
